Data taken from US20220259281A1 (SHATTUCK LABS, published 2022).

T1: recombinant human CSF1 protein (human, UniProt P09603 33-190, limits assumed)
T1 sequence (looked up): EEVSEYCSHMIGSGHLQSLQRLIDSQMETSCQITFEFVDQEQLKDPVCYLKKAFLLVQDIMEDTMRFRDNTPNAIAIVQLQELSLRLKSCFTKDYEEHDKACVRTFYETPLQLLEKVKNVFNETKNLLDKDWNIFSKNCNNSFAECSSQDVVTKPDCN


Columns and labels:
[1] = molecular target: T2, human 4-1BB (human, UniProt Q07011 24-255); assay: flow cytometry binding to HT1080/h41BB cells; supernatant as % of total reaction volume
T2 construct: whole, on cells; also called h4-1BB; 4-1BB on HT1080/h4-1BB cells
Experimental: (§1) In one experiment, the HT1080/h4-1BB cells were incubated with increasing amounts of the neat culture supernatant of Jurkat parental or the Jurkat/hPD-1-Fc-4-1BBL cells produced as discussed in Example 2. Binding was detected using flow cytometry and the mean fluorescence intensity (MFI) was calculated and plotted as a function of the amount of the neat culture supernatant of Jurkat parental or Jurkat/hPD-1-Fc-4-1BBL cells. […] Further, the CHO-K1/hPD-L1 cells were incubated with increasing amounts of the neat culture supernatant of the Jurkat parental or Jurkat/hPD-1-Fc-4-1BBL cells produced as discussed in Example 2. Binding was detected using flow cytometry and the MFI was calculated and plotted as a function of the amount of the neat culture supernatant of Jurkat parental or Jurkat/hPD-1-Fc-4-1BBL cell.

[2] = molecular target: anti-human PD-1 antibody; assay: MSD dual binding assay; Coat: anti-hPD1, Detect: anti-h41BBL; 3-fold dilution series drawn as bars
Experimental: (§2) Concentrated, de-salted culture supernatant was prepared as follows: 40 million Jurkat parental cells, Jurkat cells expressing human PD-1-Fc-4-1BBL chimeric protein (Jurkat/hPD-1-Fc-4-1BBL), Jurkat cells expressing human PD-1-Fc-OX40L chimeric protein (Jurkat/hPD-1-Fc-OX40L), or Jurkat cells expressing human CSF1R-Fc-CD40L chimeric protein (Jurkat/hCSF1R-Fc-CD40L) were cultured in 60 mL of media for 48 hours. After this, the media were harvested and concentrated 50-75× using AMICON-15 50K columns. Concentrated supernatant was desalted over a ZEBA desalting column or directly dialyzed in PBS and used in experiments. The resulting supernatant was also termed “neat” supernatant.
The PD-1-Fc-4-1BBL chimeric protein harbors the extracellular domain of PD-1 protein domain at or near the N-terminus and the extracellular domain of 4-1BB Ligand (4-1BBL) protein domain at or near the C-terminus. To understand whether the PD-1 and 4-1BBL can simultaneously bind to respective antibodies, an anti-human PD-1 antibody was coated on a plate. Three-fold serial dilutions neat culture supernatants of Jurkat parental cells or Jurkat/hPD-1-Fc-4-1BBL cells were added to the plate. […] The plate was incubated to allow capture of any protein by the plate-bound anti-human PD-1 antibody. […] Binding was detected using the MSD platform.

[3] = molecular target: T3, human PD-L1 (human, UniProt Q9NZQ7); assay: flow cytometry binding to CHOK1/hPDL1 cells; supernatant as % of total reaction volume
T3 construct: whole, on cells; also called hPD-L1; PD-L1 on CHO-K1/hPD-L1 cells
Experimental: as §1

[4] = molecular target: T1, recombinant human CSF1 protein; assay: MSD CSF1 binding; Coat: CSF1-his, Detect: anti-hCD40L-biotin then Streptavidin sulfo-tag; 3-fold dilution series drawn as bars
Experimental: FIG. 10A and FIG. 10B show the quantitation of the binding of the ECDs of human CSF1R and CD40L present in the hPD-1-Fc-OX40L chimeric protein produced by the Jurkat/hPD-1-Fc-OX40L cells to their respective ligands. […] Human recombinant CSF1-coated MSD plates were incubated with increasing amounts of the culture supernatant of the Jurkat parental or Jurkat/hCSF1R-Fc-CD40L cells produced as discussed in Example 2. Binding was detected using anti-human CD40L-biotin, followed by the MSD streptavidin reagent.
To detect binding of the chimeric protein produced by Jurkat/hCSF1R-Fc-CD40L cells to human CSF1, which is a soluble protein, the MSD platform was used. Briefly, recombinant human CSF1 protein was coated on MSD plates. Increasing amounts of the neat culture supernatant of the Jurkat parental or Jurkat/hCSF1R-Fc-CD40L cells produced as discussed in Example 2 were added. The plates were incubated to allow capture of any CSF-1 binding protein by the plate-bound CSF1. To detect capture of the hCSF1R-Fc-CD40L chimeric protein by the plate-bound CSF1, anti-human CD40L-biotin antibody was added. The MSD streptavidin reagent was added for detection. The MSD signal was plotted as a function of the amount of the neat culture supernatant of Jurkat parental or Jurkat/hCSF1R-Fc-CD40L cells.

[5] = molecular target: anti-human CSF1R antibody; assay: MSD dual binding assay; Coat: anti-hCSF1R, Detect: anti-hCD40L; 3-fold dilution series drawn as bars
Experimental: as §2
The CSF1R-Fc-CD40L chimeric protein harbors the extracellular domain of CSF1R protein domain at or near the N-terminus and the extracellular domain of CD40 Ligand (CD40L) protein domain at or near the C-terminus. To understand whether the extracellular domains of CSF1R and CD40L can simultaneously bind to respective antibodies, an anti-human CSF1R antibody was coated on a plate. Three-fold serial dilutions neat culture supernatants of Jurkat parental cells or Jurkat/hCSF1R-Fc-CD40L cells were added to the plate. […] The plate was incubated to allow capture of any protein by the plate-bound anti-human CSF1R antibody. […] Binding was detected using the MSD platform.

[6] = molecular target: T4, human CD40 (human, UniProt P25942 21-277); assay: flow cytometry binding to CHOK1/hCD40 cells; supernatant as % of total reaction volume
T4 construct: whole, on cells; also called hCD40; CD40 on CHO-K1/hCD40 cells
Experimental: In yet another experiment, the CHO-K1/hCD40 cells were incubated with increasing amounts of the neat culture supernatant of the Jurkat parental or Jurkat/hCSF1R-Fc-CD40L cells produced as discussed in Example 2. Binding was detected using flow cytometry and the MF was calculated and plotted as a function of the amount of the neat culture supernatant of Jurkat parental or Jurkat/hCSF1R-Fc-CD40L cells.

T4 sequence (P25942 21-277): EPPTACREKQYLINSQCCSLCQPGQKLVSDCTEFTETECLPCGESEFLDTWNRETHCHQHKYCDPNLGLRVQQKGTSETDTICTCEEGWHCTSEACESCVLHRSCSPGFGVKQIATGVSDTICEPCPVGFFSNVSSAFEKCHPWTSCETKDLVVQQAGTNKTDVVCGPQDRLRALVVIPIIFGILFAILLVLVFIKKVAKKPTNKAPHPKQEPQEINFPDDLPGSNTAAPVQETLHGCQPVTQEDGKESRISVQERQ
T3 sequence (Q9NZQ7 19-290): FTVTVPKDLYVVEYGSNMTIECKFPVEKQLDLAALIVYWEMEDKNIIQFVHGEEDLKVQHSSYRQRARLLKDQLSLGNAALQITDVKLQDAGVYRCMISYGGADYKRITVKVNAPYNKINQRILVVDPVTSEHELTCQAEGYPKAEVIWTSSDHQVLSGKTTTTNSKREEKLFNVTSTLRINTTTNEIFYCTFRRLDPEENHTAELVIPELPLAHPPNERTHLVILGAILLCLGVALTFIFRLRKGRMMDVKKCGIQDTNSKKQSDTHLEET
T2 sequence (Q07011 24-255): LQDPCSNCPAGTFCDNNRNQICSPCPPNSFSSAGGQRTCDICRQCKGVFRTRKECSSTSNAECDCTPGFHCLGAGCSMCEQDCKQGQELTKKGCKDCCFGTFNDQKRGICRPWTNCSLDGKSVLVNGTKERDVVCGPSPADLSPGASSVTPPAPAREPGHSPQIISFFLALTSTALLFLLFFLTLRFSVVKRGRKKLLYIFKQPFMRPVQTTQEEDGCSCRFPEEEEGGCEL

| Binder | binding result [1] | EC50 (read off the curve) [2] [µg/mL] | binding result [3] | EC50 (read off the curve) [4] [µg/mL] | EC50 (read off the curve) [5] [µg/mL] | binding result [6] |
| --- | --- | --- | --- | --- | --- | --- |
| human PD-1-Fc-4-1BBL heterologous chimeric protein (Fc fusion, Tested as secreted protein in concentrated Jurkat supernatant and as purified protein; also called hPD-1-Fc-4-1BBL; hPD1-Fc-4-1BBL) LDSPDRPWNPPTFSPALLVVTEGDNATFTCSFSNTSESFVLNWYRMSPSNQTDKLAAFPEDRSQPGQDCRFRVTQLPNGRDFHMSVVRARRNDSGTYLCGAISLAPKAQIKESLRAELRVTERRAEVPTAHPSPSPRPAGQFQSKYGPPCPPCPAPEFLGGPSVFLFPPKPKDQLMISRTPEVTCVVVDVSQEDPEVQFNWYVDGVEVHNAKTKPREEQFNSTYRVVSVLTVLHQDWLSGKEYKCKVSSKGLPSSIEKTISNATGQPREPQVYTLPPSQEEMTKNQVSLTCLVKGFYPSDIAVEWESNGQPENNYKTTPPVLDSDGSFFLYSRLTVDKSRWQEGNVFSCSVLHEALHNHYTQKSLSLSLGKIEGRMDD[sequence of about 200 residues not given] | binds | ~0.1 | binds | – | – | – |
| human CSF1R-Fc-CD40L heterologous chimeric protein (Fc fusion, Tested as secreted protein in Jurkat supernatant, as protein secreted in co-culture and as purified protein; also called hCSF1R-Fc-CD40L; chimeric protein in neat culture supernatant of Jurkat/hCSF1R-Fc-CD40L cells) [sequence of about 500 residues not given]SKYGPPCPPCPAPEFLGGPSVFLFPPKPKDQLMISRTPEVTCVVVDVSQEDPEVQFNWYVDGVEVHNAKTKPREEQFNSTYRVVSVLTVLHQDWLSGKEYKCKVSSKGLPSSIEKTISNATGQPREPQVYTLPPSQEEMTKNQVSLTCLVKGFYPSDIAVEWESNGQPENNYKTTPPVLDSDGSFFLYSRLTVDKSRWQEGNVFSCSVLHEALHNHYTQKSLSLSLGKIEGRMDHRRLDKIEDERNLHEDFVFMKTIQRCNTGERSLSLLNCEEIKSQFEGFVKDIMLNKEETKKENSFEMQKGDQNPQIAAHVISEASSKTTSVLQWAEKGYYTMSNNLVTLENGKQLTVKRQGLYYIYAQVTFCSNREASSQAPFIASLCLKSPGRFERILLRAANTHSSAKPCGQQSIHLGGVFELQPGASVFVNVTDPSQVSHGTGFTSFGLLKL | – | – | – | ~0.5 | ~0.5 | binds |
